In PubChem BioAssay (NCI):
“And” between values parts separate entries of the source, which are not always exact repeats. Identical values can stand only once.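 1) Cells in 96-well plates. 2) Compound, 48 h, 5 concentrations. 3) Linear interpolation between surrounding doses. 4) Unreached endpoint = highest concentration. GI50 is the concentration that inhibits growth by half. TGI marks complete inhibition of growth.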

Test system: NCI-H322M lung
Test: inhibition of tumour cell growth, NCI panel, 48 h

Row | SMILES | TGI | GI50
1 | CC1(C)OCC2OC3([C@@H]4OC(C)(C)O[C@H]4CO)OC(C)(C)OC3C2O1 (stereo not given in full) | > 100 µM | 
2 | CN(C)/N=C(/c1nc2ccc(Cl)cc2[nH]c1=O)C(O)c1ccc(C(O)/C(=N\N(C)C)c2nc3ccc(Cl)cc3[nH]c2=O)cc1 (stereo not given) | > 100 µM | 
3 | O=S(=O)(c1cc(Cl)ccc1Cl)n1ccnc1 | > 100 µM | 
4 | COC(=O)C1=C(C(=O)OC)SC(=CC#CC=C2SC(C(=O)OC)=C(C(=O)OC)S2)S1 | 33.4 µM | 
5 | O=[N+]([O-])c1ccc(NC(=S)N=Nc2c(O)[nH]c3ccc([N+](=O)[O-])cc23)cc1 | 65.5 µM | 
6 | Nc1ccc(C(=O)CC(N)C(=O)O)cc1O (stereo not given) | > 100 µM | 
7 | CCOC(=O)c1cc(/C=C/C(C)=C/C(=O)OC)oc1C | > 100 µM | 
8 | COC(=O)[C@@H]1CCCCC[C@H]2C(CO)=C(C)C(=O)C12 (stereo not given in full) | > 100 µM | 
9 | Cc1ccc2c(c1)-c1c(C#N)c(N)nc(-c3ccc(Cl)cc3)c1CCS2(=O)=O | > 100 µM | 
10 | C=CC(=O)Nc1cc2c(Nc3ccc(F)c(Cl)c3)ncnc2cc1OCCCN1CCOCC1 | 3.3 µM and > 6.03 µM | < 10.9 nM and 23.9 nM
11 | CCC1=NC(CO)[C@H](c2ccccc2)O1 (stereo not given in full) | > 100 µM | 
12 | CCOc1ccc(Nc2nc(N)nc(N)c2N)cc1 | > 100 µM | 
13 | CCC(CO)Nc1nc(NCc2ccccc2)c2ncn(C(C)C)c2n1 (stereo not given) | > 100 µM | 
14 | Cc1cc(S(=O)(=O)Nc2n[nH]c(-c3ccccn3)n2)c(S)cc1Cl | 66.4 µM | 
15 | CN(C)CC1CCC/C1=N\O (stereo not given) | > 100 µM | 
16 | CCOP(=O)(OCC)OC(C#N)c1ccc(-c2ccccc2)cc1 (stereo not given) | > 100 µM | 
17 | COC(=O)C(=O)C(C(=O)C(=O)Nc1cccc(C(C)=O)c1)c1nc2ccccc2[nH]c1=O (stereo not given) | > 100 µM | 
18 | COC(=O)C1CCc2sc3ncnc(Nc4cn[nH]c4C(=O)Nc4ccc(CN5CCN(C)CC5)cc4)c3c21 (stereo not given) | > 100 µM | 483 nM
19 | CC[C@]1(O)C(=O)OCc2c1cc1n(c2=O)Cc2cc3c(N)cccc3nc2-1 | > 100 µM | 
20 | NC(N)=NCCC1OC(=O)C2=C1c1c(O)ccc3nccc(c13)O2 (stereo not given) | > 100 µM | > 100000 nM
21 | COc1ccc(Cn2c3c(cc(OS(=O)(=O)C(F)(F)F)c2=O)Cc2ccccc2-3)cc1 | 50 µM and > 100 µM | 6180 nM
22 | CN(C)CCCNC(=O)c1ccc2c(c1)oc1cc3ccccc3c(=O)n12 | 41.2 µM | 21000 nM
23 | Nc1nc(Cl)cc(NCC2(O)CC2)n1 | > 100 µM | 
24 | C/C(CCc1ccccc1)=N\NC(N)=S | > 100 µM | 
25 | Cc1ccc2nc(-c3ccc(N(C)C)c(Br)c3)cn2c1 | > 100 µM | > 100000 nM

Row | SMILES | TGI | GI50
26 | COc1cc(C(=O)Nc2cc3c(cc2Oc2cc(C)cc(C)c2)C(=O)N(C)[C@@H](CC(=O)N(C)O)C(=O)N3)c(Br)c(OC)c1OC | 0.0148 µM | < 3.33 nM
27 | CO[C@H]1SC[C@H](OC(C)=O)[C@H](OC(C)=O)[C@H]1OC(C)=O | > 100 µM | 
28 | CCCCOc1ccc(OCCCCCCCCCC[N+](C)(C)C)cc1 | 21.3 µM | 
29 | O=C1C=CC(=O)N1n1c(-c2ccccc2)n[nH]c1=O | > 100 µM | 
30 | CN(C)CCCNC(=O)c1cc(NC(=O)c2cc(NC(=O)CCCn3c4ccccc4c4ccccc43)cn2C)cn1C | > 56.6 µM | 
31 | COc1ccccc1CN=C1Nc2ccncc2S(=O)(=O)N1c1ccccc1 | > 100 µM | 
32 | COC1OC(CO)C(O)C1N (stereo not given) | > 100 µM | 
33 | COC(=O)C(CC(=O)Nc1ccc(C)cc1)C(=O)C(=O)Nc1ccccc1C(C)C (stereo not given) | > 100 µM | 
34 | CSc1nc(NC(C)C)c2c(n1)Sc1nc3ccccc3n1N=C2 | 19.1 µM | 
35 | Cn1c(=O)c(-c2ccccc2)c(O)c2ccccc21 | > 100 µM | 
36 | Fc1cc2[nH]ncc2c2c3c(c(-c4cn[nH]c4C(F)(F)F)nc12)C1CCC3C1 (stereo not given) | 4.69 µM | 1400 nM
37 | CCCCC1=C(C(=O)N2CCOCC2)C2(OCCO2)C1=O | > 100 µM | 
38 | Cc1cc2c(cc1Cl)SC1=NN(C)C(N(C)C)N1S2(=O)=O (stereo not given) | > 100 µM | > 100000 nM
39 | CCOc1cccc(/C=N/NC(=O)C(=O)Nc2cccc(C(F)(F)F)c2)c1O | 17 µM | 1040 nM
40 | COc1ccc2nc(/C(N)=C\C#N)ccc2c1 | > 100 µM | 
41 | O=C1N=C2SC(=S)NC(=S)N2NC12c1ccccc1-c1ccccc12 | > 10 µM | 
42 | Cc1cc(C)nc(NS(=O)(=O)c2ccc(Nc3c4ccccc4nc4c(C(=O)N5CCN(CCOS(C)(=O)=O)CC5)cccc34)cc2)n1 | > 100 µM | 
43 | COc1cc2cc(C(=O)N3C[C@H](CCl)c4c3cc(N)c3ccccc43)[nH]c2c(OC)c1OC | 11.5 µM | 12.2 nM
44 | CC[PH+](CC)CC.O=COC1OC([S-])C(OC=O)C(OC=O)C1OC=O.[Au+] (stereo not given) | 3.07 µM | 1700 nM
45 | Nc1ccccc1C#C/C=C\C#Cc1ccccc1[N+](=O)[O-] | 74.4 µM | 24900 nM
46 | Cc1cc(S(=O)(=O)/N=C(/C(=C=[N-])C#N)[n+]2ccc(N(C)C)cc2)c(SCC(=O)O)cc1Cl | > 100 µM | 
47 | Cc1cccc(C)c1NC(=O)C1C(=O)N(c2c(C)cccc2C)C(=O)/C1=N\NC(N)=S (stereo not given) | > 100 µM | 
48 | OCCNc1ncnc2c1ncn2Cc1cccc(COc2cccc(OCc3cccc(Cn4cnc5c(NCCO)ncnc54)c3)c2)c1 | 35.8 µM | 18200 nM
49 | S=C(N/N=C\C(=N/NC(=S)N1CCCCC1)c1ccccc1)N1CCCCC1 | 3.85 µM | 
50 | CCc1c(CNc2ccc(C(=O)NC(CC(=O)O)C(=O)O)cc2)ccc2nc(N)nc(N)c12 (stereo not given) | > 1000 µM | 108 nM

Row | SMILES | TGI | GI50
51 | O=c1[nH]c2nc3ccccc3nc2[nH]c1=O | > 100 µM | 
52 | C/C=C1\NC(=O)[C@H]2CSSCCC=C[C@H](CC(=O)N[C@H](C(C)C)C(=O)N2)OC(=O)[C@H](C(C)C)NC1=O |  | < 10 nM
53 | O=C(CCc1cc(O)cc(O)c1)NCCCNC(=O)CCc1cc(O)cc(O)c1 | > 100 µM | 
54 | COc1ccc2[nH]c(O)c(C(=Nc3ccc(N(C)C(=O)CN4CCN(C)CC4)cc3)c3ccccc3)c2c1 | 9.12 µM | 1910 nM
55 | Cc1cc(C)c2c(=O)cc(-c3cccc(F)c3)[nH]c2n1 | > 100 µM | 
56 | O=C(/C=C/C(=O)N1CCCC1)N1CCCC1 | > 100 µM | 
57 | COc1cc(-c2cn(-c3ccc(Cl)c(Cl)c3)c(=O)n2C(C)=O)cc(OC)c1OC | 41.3 µM | 16600 nM
58 | CN(C)CCNC(=O)c1cc(Cl)cc2ccc(-c3ccccc3)nc12 | 14.7 µM | 
59 | Cc1c(CN2CCN(C)CC2)c(CN2CCN(C)CC2)c(C)n1-c1ccc(Cl)cc1 | > 100 µM | 
60 | Cc1cc(C)c(S(=O)(=O)N(CCCN)OCCCON(CCCN)S(=O)(=O)c2c(C)cc(C)cc2C)c(C)c1 | 4.34 µM | 
61 | C=C1OC(c2ccccc2NC)=NC12CCCCC2 | > 100 µM | 
62 | C=C(C)OCOCCOC | > 100 µM | 
63 | COC(=O)C1C(C(=O)OC)C2(OC(c3ccc(Cl)cc3)=CC2=O)C12OC(c1ccc(Cl)cc1)=CC2=O (stereo not given) | > 100 µM | 
64 | COc1cc(C(c2c(O)c3ccccc3oc2=O)c2c(O)c3ccccc3oc2=O)cc(Br)c1O | 33.8 µM | 
65 | O=c1nc2c(c(-c3ccc(Br)cc3)[nH]1)COC/C2=C\c1ccc(Br)cc1 | > 50 µM | 
66 | COc1ccccc1/C=C/C(=O)c1ccccc1 | 38.3 µM | 19000 nM
67 | CCC(O)(Cc1ccc(OC)cc1)c1ccc(OC)cc1 (stereo not given) | > 100 µM | 
68 | COc1ccc(C2C3=C(COC3=O)Oc3cc4c(cc32)OCO4)c(OC)c1 (stereo not given) | > 100 µM | 
69 | O=C(N/N=C(/CCN1CCCC1)CC(c1ccccc1)c1c(O)c2ccccc2oc1=O)c1ccncc1 (stereo not given) | > 100 µM | 
70 | OCCOCn1nncc1Cn1ncc2c(SCc3ccccc3)ncnc21 | > 100 µM | 
71 | COc1ccc(-c2c3c(n(C4OC(CO)C(O)C(O)C4O)c(=S)c2C#N)CCC3)cc1 (stereo not given) | > 100 µM | 
72 | NC(=O)c1cc2c3ccccc3ccn2c1-c1ccccc1 | 27.2 µM | 556 nM
73 | COc1ccc(N2C(=O)[C@H]3CC(C)c4c([nH]c5ccccc45)[C@H]3C2=O)cc1 (stereo not given in full) | 70.3 µM | 
74 | CC[C@H](Nc1nc(C)nc(N)c1C#N)c1nc2cccc(NCc3ccc(C(=O)NO)cc3)c2c(=O)n1-c1ccccc1 | 6.83 µM | 1930 nM
75 | CC1CCC2(NC1)OC1CC3C4CC=C5CC(OC6OC(CO)C(OC7OC(C)C(O)C(O)C7O)C(O)C6OC6OC(C)C(O)C(O)C6O)CCC5(C)C4CCC3(C)C1C2C (stereo not given) | 4.98 µM | 

Row | SMILES | TGI | GI50
76 | CC1=C(C(=O)Nc2cccc(Cl)c2)C(c2ccccc2F)C(C(=O)Nc2cccc(Cl)c2)=C(C)N1 | 37.2 µM | 
77 | C[C@]12CCC(=O)[C@@H](CCC3=CC(=O)C=CC3=O)[C@@H]1CCC2=O | > 100 µM | 
78 | NCCCCNCCCNC(=O)c1nc(-c2nc(CCN)sc2Cl)sc1Cl | > 100 µM | 
79 | O=C(c1ccncc1)n1nc(-c2ccccc2)c(N=Nc2ccccc2[N+](=O)[O-])c1-c1ccccc1 | 77.9 µM | 
80 | COc1ccc2c(c1)/C(=C\c1c(Cl)[nH]c3ccc(OC)cc13)C(=O)N2 | > 100 µM | 34000 nM
81 | CC1C(NNc2ccccc2)Oc2cc3c(cc2C1c1ccccc1O)OCO3 (stereo not given) | 19.7 µM | 
82 | CCN(CC)C(=S)Oc1cc2oc(=O)cc(C)c2cc1Cl | > 100 µM | 
83 | COC1C2C=CC(C2)[C@H]1[N+](=O)[O-] (stereo not given in full) | > 100 µM | 
84 | O=P(O)(O)c1ccccc1Oc1ccccc1 | > 100 µM | 
85 | CSc1cc(=O)n2c3ccccc3c3ccnc1c32 | > 100 µM | 
86 | COc1cc(S(=O)(=O)Nc2ccc(C(=O)/C=C/c3ccc(O)cc3)cc2)ccc1F | > 100 µM | 51800 nM
87 | CCOC(=O)C1(C#N)C(c2ccccc2)CC(O)(c2ccc(Cl)cc2)C(C(=O)c2ccc(Cl)cc2)C1c1ccccc1 (stereo not given) | > 100 µM | 
88 | COc1ccc(C2=NN(C=O)C(c3cccc(Nc4ccnc5cc(Cl)ccc45)c3)C2)cc1 (stereo not given) | > 100 µM | 6510 nM
89 | CS(=O)(=O)CSCSSCS(C)(=O)=O | > 100 µM | 
90 | Cc1cccc(-n2c(=S)[nH]c3c(sc(=O)n3-c3ccccc3C)c2=O)c1 | > 100 µM | 
91 | N#C/C(=C/n1c(=S)[nH]c2ccc([N+](=O)[O-])cc21)C(N)=O | > 100 µM | 
92 | COc1cc(CC(C)NC(C)=O)cc(OC)c1 (stereo not given) | > 100 µM | 
93 | CC1=NN(c2nc(N)nc(-c3sccc3N)n2)C(C)(C)C1 | > 100 µM | 
94 | CCOc1cc(/C=N\Nc2nnc(C)n2N)c(C)cc1N(CCCl)CCCl | > 100 µM | 2770 nM
95 | COC(=O)[C@]12CCC(C)[C@H](C)[C@H]1C1=CCC3[C@@]4(C)CC[C@H](OC(C)=O)C(C)(C)C4CC[C@@]3(C)C1(C)C(O)C2 (stereo not given in full) | > 100 µM | 
96 | O=C(O)C1CCCCC1C(=O)O.[NH-]C1CCC1.[NH2-].[Pt+2] (stereo not given) | > 100 µM | > 100000 nM
97 | COC(=O)/C(=N\NC(C)(C)C)C(C(=O)C(=O)Nc1cc(C)ccc1C)c1nc2ccccc2[nH]c1=O (stereo not given) | > 100 µM | 
98 | Cn1c(=O)c2c(nc3n(Cc4ccccc4)c(=O)c(NCCCBr)cn23)n(C)c1=O | > 100 µM | 
99 | Cc1cc(Cl)ccc1Nc1nc(C(F)(F)F)ccc1C(=O)N/N=C/c1ccc([N+](=O)[O-])cc1 | 7.71 µM | 1610 nM
